The values that follow come from the supplement of paper PMC11417369.

Some of the results follow.

The subject of this experiment is PfAP2-HC AP2 domain (GST-tagged). The experiment in a line: gcPBM binding intensity (ln(normalized median fluorescence intensity)); higher = stronger DNA binding. In short, it runs like this: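 DNA-binding domains from P. falciparum, fused to GST and produced in E. coli, were put on an Agilent 4 × 180k double-stranded probe array for 1 h in 1× PBS holding 1% milk, 0.2 mg/ml BSA, 0.5% salmon testes DNA and 0.03% Triton X-100. Probes were primer-extended, 36 bp long and drawn from intergenic genomic regions, with negative controls included. After Alexa488 anti-GST antibody detection and a 488 nm scan, binding intensity was set as the highest Masliner-normalised natural-log median intensity across replicate spots of either probe orientation.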
For “AAGGATATAAAAAAACGTACGTACGATAATATAATT [XGTACX_site1292]”, the “gcPBM binding intensity (ln)” value worked out at 9.86.

For “TTTTTTTTTTTTCTGTGTACATATATAATATATATA [XGTACX_site1592]”, the “gcPBM binding intensity (ln)” value came out at 9.7.

Turning to “ATATCTATATTTTAAAGTACGTAGTAAAAAGAAAAA [XGTACX_site4323]”, the “gcPBM binding intensity (ln)” value stood at 9.63.

For “TTTTATGAAAAGATGAGTACACAATACTTTTTAATT [XGTACX_site8253]”, the “gcPBM binding intensity (ln)” value was determined as 9.43.

As to “ATCATTTTTTATGCGTGTACATAAATTTATTAGGTT [XGTACX_site2786]”, the “gcPBM binding intensity (ln)” value was 9.92.

In the case of “TAATTATTACACGGTATTATATATAATATGTTAAAA [GTGCAC_negctrl_site134]”, the “gcPBM binding intensity (ln)” value is 9.48.

Regarding “TTTTTTGTTAAACCGGTGCATATAAATATATATATA [GTGCAC_site9989]”, the “gcPBM binding intensity (ln)” value turned out to be 9.56.

With “CACAAAAAAGTTCATACACACAACATATTTATATAT [CACACA_site2887]”, the “gcPBM binding intensity (ln)” value is 10.1.

“TAACAAAACATAGATTGTACATATTATAAATGTATA [XGTACX_site1543]”: the “gcPBM binding intensity (ln)” value was 9.75.

As to “GTTACATACCTATACACACACATATATAAATAAATA [CACACA_site6549]”, the “gcPBM binding intensity (ln)” value turned out to be 10.3.

As for “TATTCTTATCTTACCACACACAATGTACGAAAAGAT [CACACA_site6296]”, the “gcPBM binding intensity (ln)” value came to 9.83.

With “ATATAAAAATACAGGTGTACATTTTTTCATATTTAT [XGTACX_site6959]”, the “gcPBM binding intensity (ln)” value was found to be 9.75.

For the sequence “TTTCCCATAGGAAAAACACACATATATTATATATAA [CACACA_site1981]”, the “gcPBM binding intensity (ln)” value was found to be 9.5.

For the sequence “CAATATTATATTACTTGTACACATATGTAGTTTCGA [XGTACX_site8945]”, the “gcPBM binding intensity (ln)” value is 9.68.

“CAAAATATACACACGTGTACACAAATATTTACAAAA [XGTACX_site2257]”: the “gcPBM binding intensity (ln)” value amounted to 9.99.

Regarding “TTATGTCGTAAATACACACATACATATACATACACA [CACACA_site1374]”, the “gcPBM binding intensity (ln)” value came out at 9.85.

In the case of “TTGTCACTAATAGATGCATGCAATCATTCCATTTTT [TGCATGCA_site938]”, the “gcPBM binding intensity (ln)” value came out at 9.7.

In the case of “TTGTAATGATATATTTGTACTTAATATAATTGTATA [XGTACX_site2748]”, the “gcPBM binding intensity (ln)” value worked out at 9.59.

For the sequence “AATAAATTGAAACACACACACACATATATATATATA [CACACA_site848]”, the “gcPBM binding intensity (ln)” value was 11.2.

In the case of “TTTATTGCTCTATATGCACACCTTAATTCTTCATTT [CACACA_site8682]”, the “gcPBM binding intensity (ln)” value is 9.99.

On to “GAAGATTTATCTTGCACACGCAAAAAAAAAAAAAAA [CACACA_site154]”, for which the “gcPBM binding intensity (ln)” value came to 9.67.

“GAAAATATTTCTATCTGTACTTATTTATATATATAT [XGTACX_site7317]”: the “gcPBM binding intensity (ln)” value was determined as 9.73.

Regarding “TACGTAAATTCTAATACACACTATAGGATATTCTGC [CACACA_site7248]”, the “gcPBM binding intensity (ln)” value is 9.65.

Take “AAAAATAATCATAGTAGTACAAAAAAAAAAAAAAAA [XGTACX_site3736]”: the “gcPBM binding intensity (ln)” value was found to be 9.27.

As for “ATGTACTATGATAATGCATGCAATAATACATTTTTA [TGCATGCA_site318]”, the “gcPBM binding intensity (ln)” value is 9.6.
